# Laboratory results taken from US20140017255A1 (E R SQUIBB AND SONS L L C, published 2014).
# T1: biotinylated human HVEM-Fc (R&D Systems) (human, UniProt Q92956 39-202, biotinylated)
# T1 construct: also called hHVEM; not shown: Fc part of the commercial fusion protein; not described
# T1 sequence (looked up): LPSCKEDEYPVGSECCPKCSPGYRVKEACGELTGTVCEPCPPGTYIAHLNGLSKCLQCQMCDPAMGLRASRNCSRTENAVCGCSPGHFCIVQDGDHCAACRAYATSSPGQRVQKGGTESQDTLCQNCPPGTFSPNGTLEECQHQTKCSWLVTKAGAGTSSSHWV
# B1: human BTLA expressed on CHO cells (receptor)
# chain: not shown
# notes: also called CHO/huBTLA; hBTLA
# Target: T1, biotinylated human HVEM-Fc (R&D Systems)
# Assay: flow cytometry on CHO cells expressing human BTLA, biotinylated human HVEM-Fc at 1 ug/mL, PE-SA detection
binder,measurement,value
B1,binding result,binds
